Experimental data taken from patent publication US20260374834 (published 2026).

Biological target: T1, hIL-18Ra (human, UniProt Q13478)
T1 chain: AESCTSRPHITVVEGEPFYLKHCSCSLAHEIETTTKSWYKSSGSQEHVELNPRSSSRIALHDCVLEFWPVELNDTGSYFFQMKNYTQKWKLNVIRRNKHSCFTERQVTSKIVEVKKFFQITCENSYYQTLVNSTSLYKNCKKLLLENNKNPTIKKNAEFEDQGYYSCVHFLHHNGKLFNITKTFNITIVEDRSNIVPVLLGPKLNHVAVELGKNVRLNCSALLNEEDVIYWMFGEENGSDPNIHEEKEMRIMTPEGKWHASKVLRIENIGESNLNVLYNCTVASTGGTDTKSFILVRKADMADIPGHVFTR
Test: BLI, 32 nM

binding result: no binding
B1: proIL-18 (protein)
chain: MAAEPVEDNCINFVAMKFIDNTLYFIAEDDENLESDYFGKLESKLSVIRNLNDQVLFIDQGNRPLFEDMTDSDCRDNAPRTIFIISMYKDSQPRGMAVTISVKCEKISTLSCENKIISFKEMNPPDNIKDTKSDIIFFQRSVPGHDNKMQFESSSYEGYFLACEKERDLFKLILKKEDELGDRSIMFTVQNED
